# According to PubChem BioAssay AID2100 (National Center for Advancing Translational Sciences (NCATS), 2009):
# Screen size: about 300,000 compounds; about 1,200 (0.4%) were called active. The shares of active, inactive and inconclusive entries below differ from those in the screen. Calls follow the shape of the dose curve; as a rule, active = well fitted inhibition curve with a large enough effect; inconclusive = small, poorly fitted or top-dose-only effect, or another doubt; inactive = no such curve, though single readings can be large or run the other way. Where the call is inconclusive, the potency comes from a doubtful curve fit.
# Biological target: Lysosomal alpha-glucosidase (Homo sapiens) (UniProt P10253)
# Assay: qHTS Assay for Inhibitors and Activators of Human alpha-Glucosidase Cleavage of Glycogen;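 as to activity change, negative = inhibition: 0% = full enzyme reaction and -100% = no-enzyme basal signal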
# Conditions: recombinant GAA, glycogen substrate, Amplex Red glucose oxidase fluorescence; activity change, negative = inhibition: at 76.4 µM (top of the series) unless noted
# Method in brief: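 Recombinant human enzyme (4 nM); glycogen substrate; 37 C, 40 min, pH 5.0. Readout: coupled glucose oxidase/Amplex Red fluorescence.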
# Potency is read from the fitted curve at half-maximal effect.
SMILES,"activity change, negative = inhibition",Potency
COc1ccccc1N1CCN(C2=Nc3cccc4cccc2c34)CC1,inactive: -2.55%,
CC(=O)NC(Nc1c(C)n(C)n(-c2ccccc2)c1=O)C(Cl)(Cl)Cl (configuration not stated),,"inconclusive: 28.2 µM [inhibitor, partial curve]"
COc1ccc(-c2nc(N/N=C(\C)c3ccc(O)cc3)c3ccccc3n2)cc1,,"inconclusive: 39.8 µM [inhibitor, single point]"
CNC(=S)NNC(=O)c1cc(C(C)(C)C)nn1Cc1ccc(F)cc1,,"inconclusive: 25.1 µM [inhibitor, partial curve]"
CC(=O)Nc1sc(N/N=C/c2ccccc2F)nc1-c1ccc(C)cc1,,"inconclusive: 25.1 µM [inhibitor, single point]"
CC1CCCN(C(=S)Nc2ccc(Nc3ccccc3)cc2)C1 (configuration not stated),,"inconclusive: 31.6 µM [inhibitor, single point]"
COc1ccc(NC2=C(NCCO)C(=O)c3ccccc3C2=O)cc1,,"inconclusive: 3.98 µM [inhibitor, full curve]"
Oc1ccccc1N1CCN(CC(O)COCc2ccccc2Cl)CC1 (configuration not stated),,"inconclusive: 7.94 µM [inhibitor, full curve]"
Cc1ccccc1Nc1c(-c2cccc(O)c2)nc2ccc(Br)cn12,,"inconclusive: 28.2 µM [inhibitor, partial curve]"
CCN1CCN(CC(=O)Nc2cccc(C)c2C)C(=O)C1=O,inactive: -13%,
Cc1[nH]n(-c2ccccc2)c(=O)c1CCOC(=O)c1cccc(C(F)(F)F)c1,,"inconclusive: 25.1 µM [inhibitor, partial curve]"
c1ccc(-c2nc(-n3ccnc3)nc(-n3ccnc3)n2)cc1,inactive: -3.19%,
CCOc1cccc(CN2CCN(CCc3ccccc3)C(CCO)C2)c1O (configuration not stated),,"inconclusive: 12.6 µM [inhibitor, partial curve]"
Cc1ccc2nc(CSc3nc(C)ccc3C#N)[nH]c2c1,,"inconclusive: 25.1 µM [inhibitor, partial curve]"
CCC(=O)NNC(=S)NC(=O)c1ccc(C)cc1,,"inconclusive: 6.26 µM [inhibitor, full curve]"
COc1ccc2[nH]cc(CCNS(=O)(=O)c3ccc(C)cc3)c2c1,inactive: -4.07%,
C/C(=C\C(=S)Nc1ccccc1)Nc1ccccc1,,"inconclusive: 31.4 µM [inhibitor, partial curve]"
C/C(=N\NC(=O)c1cc2ccccc2cc1O)c1ccc2c(c1)OCO2,,"inconclusive: 24.9 µM [inhibitor, single point]"
Cc1ccc(S(=O)(=O)Nc2ccccc2C(=O)Nc2sccc2C(=O)NN(C)C)cc1,,"inconclusive: 3.16 µM [inhibitor, full curve]"
COc1ccc(/C=N/NC(=O)c2c(C)n(C)c3ccc(OC)cc23)c(OC)c1,,"inconclusive: 22.2 µM [inhibitor, partial curve]"
CCOC(=O)C(=NCCCN(C)C)NNc1ccc(Br)cc1,,"inconclusive: 22.2 µM [activator, single point]"
Oc1ccc(/C=N/NC(=S)N2CCOCC2)cc1,,"inconclusive: 2.82 µM [inhibitor, full curve, poor fit]"
CCOC(=O)C(C)/C(C)=N/NC(=O)c1cc2ccccc2cc1O (configuration not stated),,"inconclusive: 17.8 µM [inhibitor, partial curve]"

SMILES,"activity change, negative = inhibition",Potency
CCN(CC)c1ccc(N)cc1S(=O)(=O)Nc1ccc(OC)cc1,,"inconclusive: 31.6 µM [inhibitor, partial curve]"
Cn1c(=O)cc(C(=O)N/N=C/c2ccc(F)cc2)[nH]c1=O,,"inconclusive: 28.2 µM [inhibitor, single point]"
CC(=O)Nc1ccc(/C(C)=N/Nc2nc(Nc3ccccc3)nc(N3CCOCC3)n2)cc1,,"inconclusive: 35.5 µM [inhibitor, single point]"
CCCCn1c(-c2csc(CCC)c2)n[nH]c1=S,,"inconclusive: 24.9 µM [inhibitor, single point]"
Oc1ccc(N=Cc2sc3ccccc3c2Cl)cc1,,"inconclusive: 39.8 µM [inhibitor, single point]"
COCC(=O)Nc1c(C(=O)Nc2ccc3c(c2)OCCO3)oc2ccccc12,inactive: 1.95%,
Oc1ccc(/C=N/NC(=S)N/N=C/c2ccc(O)cc2)cc1,,active: 3.55 µM
COc1cc(-c2cc(OC)c3c(C)oc(C)c3c(=O)c2)ccc1O,,"inconclusive: 28.2 µM [inhibitor, partial curve]"
CCN(CC)c1cc2c(cc1F)c(=O)c(S(=O)(=O)c1ccc(OC)cc1)cn2Cc1ccccc1,inactive: -3.81% [at 76.3 µM],
Cc1ccccc1Nc1c(-c2ccc(Br)o2)nc2ccc(Cl)cn12,,"inconclusive: 7.94 µM [inhibitor, partial curve]"
O=C(O)c1cc(NCc2ccc(F)cc2)ccc1N1CCOCC1,,"inconclusive: 10 µM [inhibitor, partial curve]"
COc1cccc(/C=N/Nc2ccc(C(=O)O)cc2)c1O,,"inconclusive: 0.891 µM [inhibitor, full curve]"
O=S(=O)(c1ccc(Cl)nc1)N1CCCc2ccccc21,inactive: 7.66%,
COc1ccccc1N1C(=O)N(C(C)=O)C2C1Nc1ccccc1N2C (configuration not stated),,active: 35.5 µM
COc1cc(CN2CCN(c3ccccc3F)CC2)cc(OC)c1O,,"inconclusive: 39.8 µM [inhibitor, partial curve]"
COc1ccccc1NC(=O)Cn1c(=O)c(N(C)C)c(N)n(C)c1=O,,"inconclusive: 12.6 µM [inhibitor, partial curve]"
O=C(NNC(=S)NCCCN1CCOCC1)c1ccncc1,,"inconclusive: 50.1 µM [inhibitor, single point]"
COc1cccc(-c2cn3nc(C)c(C)nc3n2)c1,inactive: 5.06%,
CC(=O)NNS(=O)(=O)c1ccc(-c2cc(C(F)(F)F)n(C)n2)s1,,"inconclusive: 28.2 µM [inhibitor, single point]"
COc1ccc(C2CC(=O)NC(NC(=O)c3ccc(Br)cc3)=N2)c(OC)c1OC (configuration not stated),,"inconclusive: 50.1 µM [inhibitor, partial curve, poor fit]"
Cc1cc(C)n2c(Nc3ccc(Cl)cc3)c(-c3ccsc3)nc2n1,,"inconclusive: 7.94 µM [inhibitor, full curve]"
CC1=NC2(CCCc3c2no[n+]3[O-])N(O)C1(C)C (configuration not stated),,"inconclusive: 12.5 µM [inhibitor, partial curve]"
COc1cccc(/C=C/c2nc(C#N)c(NCCN(C)C)o2)c1,,"inconclusive: 15.8 µM [inhibitor, partial curve]"

SMILES,"activity change, negative = inhibition",Potency
CC(=O)Nc1ccc(S(=O)(=O)Nc2cccc(-c3ccc4nncn4n3)c2)cc1,,"inconclusive: 14.1 µM [inhibitor, partial curve]"
O=C1C(Cc2ccccc2)NC(=S)N1c1ccccc1 (configuration not stated),,"inconclusive: 31.4 µM [inhibitor, single point]"
Fc1ccccc1-c1ccc(/C=N/Nc2nc3ccccc3[nH]2)o1,inactive: 3.38%,
CCN(CC)S(=O)(=O)c1ccc2oc(C(=O)NCc3ccc(C)cc3)c(C)c2c1,,"inconclusive: 22.2 µM [inhibitor, partial curve]"
CCn1cnc2sc(C(=O)N(Cc3ccc(N(C)C)cc3)Cc3ccco3)c(C)c2c1=O,,"inconclusive: 11.2 µM [inhibitor, partial curve]"
COc1ccc(N(C(=O)CCl)C(C)(C(=O)Nc2c(C)cccc2C)c2ccccn2)cc1 (configuration not stated),inactive: 13.8%,
COc1ccc(OC)c(S(=O)(=O)n2nc(-c3ccccc3)cc2N)c1,,"inconclusive: 11.2 µM [inhibitor, full curve, poor fit]"
Cc1ccc(C(=O)C(NC(=O)c2ccco2)Nc2sc3c(c2C(N)=O)CCCC3)cc1 (configuration not stated),,active: 24.9 µM
Cc1cccc(NC2=C(NCCO)C(=O)c3ccccc3C2=O)c1,,"inconclusive: 50.1 µM [inhibitor, single point]"
COc1cc2c(cc1OC)C1(CCCC1)C(N)=C2C#N,,"inconclusive: 28.2 µM [inhibitor, single point]"
O=C(/C=C/c1ccc(O)c(O)c1)NC(=O)c1ccccc1O,,active: 3.55 µM
CC[C@]1(O)CC2CN(CCc3c([nH]c4ccccc34)[C@@](C(=O)OC)(c3cc4c(cc3OC)N(C=O)[C@H]3[C@@](O)(C(=O)OC)[C@H](OC(C)=O)[C@]5(CC)C=CCN6CC[C@]43[C@@H]65)C2)C1 (some centres not stated),,"inconclusive: 24.9 µM [inhibitor, single point]"
CCN(CC)S(=O)(=O)c1ccc(N2CCOCC2)c(NC(=O)c2cc(=O)[nH]c3ccccc23)c1,inactive: -15%,
Fc1ccc(-n2cc(-c3ccccc3)c3c(NN4CCOCC4)ncnc32)cc1,,"inconclusive: 6.31 µM [inhibitor, partial curve]"
Cc1cc(Nc2nnnn2-c2ccccc2)n(-c2ccccc2)n1,,"inconclusive: 25.1 µM [inhibitor, partial curve]"
O=C(NC(=S)Nc1ccccc1N1CCCC1)c1ccccc1[N+](=O)[O-],,"inconclusive: 3.52 µM [inhibitor, full curve]"
Cc1ccc2nc(-c3ccccc3F)c(Nc3ccc(Cl)cc3)n2c1,,"inconclusive: 15.8 µM [inhibitor, partial curve]"
N/C(=N/O)c1cccn1Cc1ccccc1[N+](=O)[O-],,"inconclusive: 5.01 µM [inhibitor, full curve]"
COc1ccc(-c2nc(C#N)c(NC(C)C)o2)cc1,,"inconclusive: 25.1 µM [inhibitor, partial curve]"
COc1cc(/C(C)=N/Nc2ccc(C(=O)O)cc2)cc(OC)c1OC,,"inconclusive: 50.1 µM [inhibitor, single point]"
NNC(=O)c1cc2cc3ccccc3nc2s1,,"inconclusive: 5.58 µM [inhibitor, partial curve]"
